Data on 1 molecule can be found in patent publication US20250000946A1 (WUXI BIOLOGICS IRELAND, published 2025).

Like-named read-outs stand apart in the source and are kept apart here.

Test [1] concerns the target T1, Human IL-2Rβ/γ (intermediate affinity IL-2 receptor) (human, UniProt P14784 27-551; P31785 23-369).
T1 construct: whole, on cells; also called IL-2Rβ/γc; IL-2Rβ (CD122) and γ (CD132)
T1 sequence (looked up) 1: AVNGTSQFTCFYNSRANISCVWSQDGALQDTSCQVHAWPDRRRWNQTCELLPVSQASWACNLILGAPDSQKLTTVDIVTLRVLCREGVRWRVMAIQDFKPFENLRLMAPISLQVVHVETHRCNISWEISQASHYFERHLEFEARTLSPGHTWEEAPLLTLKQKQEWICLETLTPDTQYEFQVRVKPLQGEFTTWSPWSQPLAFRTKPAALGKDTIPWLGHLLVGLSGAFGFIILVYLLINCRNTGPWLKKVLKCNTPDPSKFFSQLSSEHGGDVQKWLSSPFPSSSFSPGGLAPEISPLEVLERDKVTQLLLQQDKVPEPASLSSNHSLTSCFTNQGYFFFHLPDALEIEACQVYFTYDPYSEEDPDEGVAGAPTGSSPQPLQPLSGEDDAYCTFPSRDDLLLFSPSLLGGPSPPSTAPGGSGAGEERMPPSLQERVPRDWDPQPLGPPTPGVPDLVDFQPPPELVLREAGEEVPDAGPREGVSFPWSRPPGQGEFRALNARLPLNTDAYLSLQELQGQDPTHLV
T1 sequence (looked up) 2: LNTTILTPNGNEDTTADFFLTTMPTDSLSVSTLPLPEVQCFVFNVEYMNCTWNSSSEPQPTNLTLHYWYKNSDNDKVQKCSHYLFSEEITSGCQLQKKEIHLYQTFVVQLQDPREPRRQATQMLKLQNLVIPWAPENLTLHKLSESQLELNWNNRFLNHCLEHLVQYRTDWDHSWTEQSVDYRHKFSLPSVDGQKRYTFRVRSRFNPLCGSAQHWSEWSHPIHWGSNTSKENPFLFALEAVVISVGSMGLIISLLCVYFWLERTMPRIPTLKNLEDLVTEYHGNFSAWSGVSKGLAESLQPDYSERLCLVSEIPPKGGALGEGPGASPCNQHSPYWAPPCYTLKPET
The experiment in a line: FACS, HH cells. The procedure:
(§1) Human cutaneous T cell lymphoma HH cells, malignant non-Hodgkin's lymphoma NK92 cells and cutaneous T cell lymphoma MJ20 cells were used for binding assay. They both constitutively express IL-2Rβ (CD122) and […] (CD132), and NK92 and MJ20 also expresses IL-2Rα (CD25). HH, NK92 and MJ20 cells were cultured following ATCC guidance, then transferred to a 96-plate for binding analysis. Cells were incubated with IL-2/Fc fusion proteins at the indicated concentrations for 30 min at 4° C. to avoid internalization. Binding was detected by 2nd antibody of PE-anti-human Fc at 4° C. for another 30 min. The median fluorescence intensity (MFI) on HH and NK92 cells was measured using FACS.

For test [2], the target named is T1, Human IL-2Rβ/γ (intermediate affinity …). As to the kind of experiment: FACS, HH cells. The method, then:
as §1
This is another data set of the same source.

The target in test [3] is T2, Human IL-2Rα/β/γ complex (high affinity IL-2 receptor) (human, UniProt P01589 22-272; P14784 27-551; P31785 23-369).
T2 construct: whole, on cells
T2 sequence (looked up) 1: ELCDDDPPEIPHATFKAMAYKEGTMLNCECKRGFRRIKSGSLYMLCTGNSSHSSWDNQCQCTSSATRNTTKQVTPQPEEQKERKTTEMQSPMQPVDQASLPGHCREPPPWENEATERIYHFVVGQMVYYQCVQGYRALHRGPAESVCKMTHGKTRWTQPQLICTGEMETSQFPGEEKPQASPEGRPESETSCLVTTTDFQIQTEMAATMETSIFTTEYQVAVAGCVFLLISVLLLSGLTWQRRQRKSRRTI
T2 sequence (looked up) 2: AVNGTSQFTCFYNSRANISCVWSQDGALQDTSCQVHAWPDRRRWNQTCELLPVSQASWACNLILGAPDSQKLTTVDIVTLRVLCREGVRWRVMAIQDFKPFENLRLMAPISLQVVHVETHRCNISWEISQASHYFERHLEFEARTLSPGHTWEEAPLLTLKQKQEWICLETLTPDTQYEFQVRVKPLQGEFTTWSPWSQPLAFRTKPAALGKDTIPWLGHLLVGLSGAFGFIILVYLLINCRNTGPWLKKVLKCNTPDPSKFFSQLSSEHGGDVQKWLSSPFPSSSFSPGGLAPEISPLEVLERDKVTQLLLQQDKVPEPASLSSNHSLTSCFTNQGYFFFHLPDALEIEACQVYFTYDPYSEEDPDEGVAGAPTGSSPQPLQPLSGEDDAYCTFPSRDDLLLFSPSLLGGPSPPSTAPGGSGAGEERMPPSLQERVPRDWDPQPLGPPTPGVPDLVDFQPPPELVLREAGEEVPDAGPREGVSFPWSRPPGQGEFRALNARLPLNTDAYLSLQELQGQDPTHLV
T2 sequence (looked up) 3: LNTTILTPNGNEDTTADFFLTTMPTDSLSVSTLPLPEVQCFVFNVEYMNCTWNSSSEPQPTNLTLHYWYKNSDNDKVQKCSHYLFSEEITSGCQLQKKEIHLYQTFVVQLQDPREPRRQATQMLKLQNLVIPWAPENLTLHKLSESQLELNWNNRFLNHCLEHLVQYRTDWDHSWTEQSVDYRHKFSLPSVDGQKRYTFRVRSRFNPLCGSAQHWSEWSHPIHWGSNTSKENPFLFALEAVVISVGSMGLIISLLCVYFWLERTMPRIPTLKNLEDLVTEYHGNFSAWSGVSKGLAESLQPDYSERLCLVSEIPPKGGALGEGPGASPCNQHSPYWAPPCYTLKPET
As to the kind of experiment: FACS, MJ20 cells. The procedure: as §1
Affinity of IL-2 variants to IL-2Rα/β/γ supported the same results (FIG. 8 and Table 7). […] And T2U0.E44-26, T2U0.E44-27, T2U0.E44-29 and T2U0.E44-30 induced hundreds to thousands affinity reduction in Treg compared to T2U0.E44-1. Binding curves in MJ20 cells (IL-2Rα/β/γ) also achieved similar trend (FIG. 8b). As a result, the method of C-terminal truncation and substitution of 129 was available to achieve IL-2Rβγ attenuated IL-2 variants.

Test [4] addresses T2, Human IL-2Rα/β/γ complex (high affinity …). As to the kind of experiment: FACS, MJ20 cells. The procedure:
as §1
The source holds these as a separate data set.

In test [5] the target is T1, Human IL-2Rβ/γ (intermediate affinity …). As to the kind of experiment: cell-based or functional assay.
In test [6] the target is T2, Human IL-2Rα/β/γ complex (high affinity …). As to the kind of experiment: cell-based or functional assay.
The target in test [7] is T1, Human IL-2Rβ/γ (intermediate affinity …). The experiment in a line: FACS, HH cells; EC50 fold vs T2U0.E44-1. The procedure: as §1
Test [8] addresses T2, Human IL-2Rα/β/γ complex (high affinity …). As to the kind of experiment: FACS, MJ20 cells; EC50 fold vs T2U0.E44-1. The procedure: as §1
IL-2 variants of T2U0.E44-6 and T2U0.E44-26 were used to construct bivalent variants W3XX115-T2.Z20-1.uIgG4V322 and W3XX115-T2.Z20-2.uIgG4V322 respectively.

The target in test [9] is T3, W369-hPro2.ECD.His, IL2Rβ ECD (human, UniProt P14784 27-239).
T3 construct: Entry includes linker and C-terminal 6xHis tag; also called CD122
T3 sequence: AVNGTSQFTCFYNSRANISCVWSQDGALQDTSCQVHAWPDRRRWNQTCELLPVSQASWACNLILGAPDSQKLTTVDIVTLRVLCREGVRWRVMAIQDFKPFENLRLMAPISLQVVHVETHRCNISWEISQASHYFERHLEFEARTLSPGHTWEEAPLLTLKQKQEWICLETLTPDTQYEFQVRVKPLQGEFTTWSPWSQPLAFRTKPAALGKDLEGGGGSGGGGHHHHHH
As to the kind of experiment: SPR Biacore 8K; set-up for IL-2Rβ not described.

B1: W3XX115-T2U0.E44-1.uIgG4V322 (Fc fusion)
chain: [no letters for about 150 residues]ESKYGPPCPPCPAPEAAGGPSVFLFPPKPKDTLMISRTPEVTCVVVDVSQEDPEVQFNWYVDGVEVHNAKTKPREEQFNSTYRVVSVLTVLHQDWLNGKEYKCKVSNKGLPSSIEKTISKAKGQPREPQVYTLPPCQEEMTKNQVSLWCLVKGFYPSDIAVEWESNGQPENNYKTTPPVLDSDGSFFLYSRLTVDKSRWQEGNVFSCSVMHEALHNHYTQKSLSLSLG
heavy: EIQLQQSGPELVKPGASVKVSCKASGYSFTDYNMYWVKQSHGESLEWIGYIDPYNGGTRYNQKFKGKATLTVDKSSSTAFMHLNSLTSEDSAVYYCARNGHWDGAWFAYWGQGTLVTVSAASTKGPSVFPLAPCSRSTSESTAALGCLVKDYFPEPVTVSWNSGALTSGVHTFPAVLQSSGLYSLSSVVTVPSSSLGTKTYTCNVDHKPSNTKVDKRVESKYGPPCPPCPAPEAAGGPSVFLFPPKPKDTLMISRTPEVTCVVVDVSQEDPEVQFNWYVDGVEVHNAKTKPREEQFNSTYRVVSVLTVLHQDWLNGKEYKCKVSNKGLPSSIEKTISKAKGQPREPQVCTLPPSQEEMTKNQVSLSCAVKGFYPSDIAVEWESNGQPENNYKTTPPVLDSDGSFFLVSRLTVDKSRWQEGNVFSCSVMHEALHNHYTQKSLSLSLG
light: DIQMNQSPSSLSASLGDTITITCHASQNINVWLSWYQQKPGNIPKLLIYKASNLHTGVPSRFSGSRSGTGFTLTISSLQPEDIATYYCHQGQSYPFTFGSGTKLEIKRTVAAPSVFIFPPSDEQLKSGTASVVCLLNNFYPREAKVQWKVDNALQSGNSQESVTEQDSKDSTYSLSSTLTLSKADYEKHKVYACEVTHQGLSSPVTKSFNRGEC
notes: WT IL-2, no linker, IgG4 Fc with FALA, one Fab arm (E44 format); also called T20.E44-1; wild-type IL-2
In the case of B1, the EC50 turned out to be 50.5 nM in test [1], 52.6 nM in test [2], 14 nM in [3] and 45.9 nM in test [4]. Also, in test [5], the “Potency EC50, STAT5 phosphorylation in CD8+ T (column headed Human Treg; paragraph 375 gives these folds for CD8+ T)” value is 11.4 nM. Besides, the “Potency reduction, CD8+ T (column headed Human Treg)” value in test [5] was 1 fold. Besides, the “Potency EC50, STAT5 phosphorylation in Treg (column headed Human CD8+ T; paragraph 375 gives these values for Treg)” value in test [6] is 0.007 nM. Moreover, the “Potency reduction, Treg (column headed Human CD8+ T)” value in [6] worked out at 1 fold. Moreover, the Affinity reduction in test [7] and in test [8] was 1 fold each time. Besides, the Kd in [9] is 3100 nM.
